The data scatter; read single values as rough.
B1: library; a variant is named by its letters at X, in order (parent)
chain: EASNCFAIRHFENKFAVETLICXXXXXXXX

Variants of: B1
Test: amyloid nucleation score relative to library mode (yeast Sup35 reporter selection) (log enrichment difference); higher = more amyloid nucleation; sequences are the first 22 residues of the Bri2 peptide extended by up to 12 random residues
Details: random library (experiment): 1;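 active = nucleation score significantly above 0 at FDR 0.05; inactive = not significantly above 0 or absent from output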
Experimental: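 Random C-terminal extensions of the 22-aa Bri2 peptide by 12 NNK codons; premature stops give shorter extensions. Peptides were fused to the Sup35 nucleation domain in S. cerevisiae [psi-pin-] and selected on -ADE-URA plates for 7 d at 30 °C. The nucleation score is log(output/input), centred to the mode of each of 3 independent libraries (1 input, 3 technical output replicates), with duplicates merged. Sequences absent from the output ('random_non_nuc') were imputed with the library mode value, so they are given as censored (<). Nucleators are scores significantly >0 at FDR 0.05.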
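Note: [psi-pin-] Saccharomyces cerevisiae expressing SupN fusions, induced by 100 µM Cu2SO4, selected 7 d at 30 °C without adenine and uracil, scored by deep sequencing of output versus input.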

Variant	amyloid nucleation score
AMKVLFEI	inactive
GHLMWARM	inactive
CLVLPVSP	4.93
VLMCRVYI	inactive
CHEASAKE	inactive
VVERSRKR	5.03
MVSFSMAE	-0.179
RKFPSWEC	inactive
HLRSWPGE	inactive
LSEMGQYF	2.11
ASVHCPCS	inactive
EWPVWWYS	4.12
HDGSKWRA	inactive
IRMYFNPC	inactive
LEYLGVAD	inactive
YWEGFEWC	inactive
RAQHGAII	inactive
WVSVLQRE	inactive
KVTGMAGT	inactive
DSSRLFCS	7.52
VFKFNPGV	3.34
YAFCCMIV	0.376
AVMMHRRN	inactive
RSLRRRFC	-0.412
IEYVELVA	inactive

Variant	amyloid nucleation score
VCGDMGRV	7.3
EEPTGLRP	-0.219
KGYCRCII	inactive
PQLAGVLL	-0.071
VVRMALHN	inactive
LIRGSRET	2.95
RSIGRVFR	inactive
VSWTLSLI	inactive
YCCRSLGP	7.03
VSEGVLDG	inactive
QMSRMLSG	inactive
ATLGVVVS	inactive
RELVSYRP	4
ELFKGIRP	2.12
FAQSWRPA	3.47
VSCMWGGA	7.73
TVGVVCTN	inactive
YCRWFKKL	inactive
DVLANNYA	inactive
YIIWHSFR	inactive
RSYEYNML	0.754
MFHPNSQY	4.15
WMVSRLKV	inactive
MSFHNSND	8.59
VLLERPCG	inactive

Variant	amyloid nucleation score
NVRLRVKL	4.79
VWTATWDA	inactive
PARGWYVN	inactive
VTQRATAW	inactive
RMESWSRS	0
LMRNLCAK	inactive
VVPMDMIW	4.58
AVKDNGAV	inactive
GVRQNGCK	inactive
GYSVRSSS	-0.309
CRWCATEL	6.65
RKLFDCLV	-0.0479
VELKCCTT	4.5
NTRNAVSA	inactive
EVYERRQA	-0.219
VLSNHPYA	5.02
GNSQKTDM	inactive
CSGGWARS	8.93
YIELRDSN	5.36
LSYGGNYF	6.58
PTSLRLAR	0.674
WSVVRTAR	5.79
TSVDCWTR	inactive
RRPVRRRE	inactive
VKLIRGQE	inactive

Variant	amyloid nucleation score
PQTIRWAR	inactive
FRSRLIPE	2.28
WFRLRHGR	inactive
TFRSYSSL	2.91
LRQTKPLV	inactive
DLSRVKRV	inactive
CTVWYAAR	6.96
GSIRVGYP	5.14
AWLSEDRA	inactive
IALVSCIS	-0.0935
MYAGLLGR	4.27
FSIKQNMN	2.21
RLGMADME	inactive
WSTVESTL	4.56
DPLCRVFG	0.498
ADWGDNSA	inactive
CYVDTSRR	8.57
AVKMWLNE	-0.0664
LIFLPSWS	inactive
NRSFVVYD	inactive
VPGGQLVR	inactive
ASVNHFLT	inactive
KVRKDSTV	inactive
WSMGIINE	4.09
TAGRPTVA	inactive

Variant	amyloid nucleation score
GKTIGGRR	inactive
LPLCHDFS	8.39
LYSSPSVE	inactive
AAESPSPT	inactive
VCKPLGLL	3.87
WWEYRTAP	inactive
KYYAHIVS	inactive
LAKLMRRS	inactive
THCPFRRC	inactive
FRASEGTS	0.04
NFIYCRFD	4.89
WDLWPICF	inactive
MRVRVSFL	inactive
AVLTHSAE	inactive
VSGWMSKL	inactive
GHAYRTRG	inactive
EPIGDQAT	inactive
LWKVPGLL	inactive
RSAMGTLG	inactive
PGDVCVWH	inactive
LRTPTRGA	inactive
AVWSASDV	5.28
DAMGGKQK	inactive
VGREDTDY	inactive
LGSVLGQD	7.26

Variant	amyloid nucleation score
GSLAARAQ	0.288
VVRAVARE	inactive
VLSERRWF	inactive
VSFTGLCT	6.15
HDRYYVRV	inactive
WVEGERLD	1.78
KAEDTLMQ	inactive
NSSYSISY	inactive
CMNKGQPK	1.89
CVWVSWCT	6.07
DGTALLDR	inactive
LICDFRVG	6.05
VSKGQGRV	-0.154
LSSSGLTD	-0.0664
VSFRWSYA	7.1
LNLPGLSS	6.02
DEAKFDLH	3.2
CIRGLCGN	4.73
TLSLLRNG	inactive
ESLSLRGM	inactive
IAMNGLFR	inactive
NRWPCYSW	inactive
FRKMWQCG	inactive
YVGCFEGL	7.16
LVAIDWMR	inactive

Variant	amyloid nucleation score
FQRRYAIK	inactive
LLWYCYNW	inactive
KECRQKKR	0.887
LCAHSPCK	5.84
RMCCRSWL	inactive
AGQGSVSI	inactive
CASPKYGK	5.99
TTALNRYR	inactive
VNGLPSFA	inactive
NRHSQNML	-0.211
ISWSTSRD	4.99
KALSCQRM	inactive
TVLGSITL	7.53
VCMVFGCI	inactive
AEGMFHPA	inactive
LVSCTMVL	inactive
FSTVSGQY	7.98
WVGSSRPV	1.3
ARVWQVAT	inactive
VDEMVYSG	inactive
IRVCCPTN	0.506

Same assay, conditions: random library (experiment): 2

Variant	amyloid nucleation score
CGLITYYL	8.28
MNTVRFLV	inactive
FTQNSFDS	4.52
LGINGSCR	7.75
CMDVCTID	7.8
DVWFKLNS	inactive
YVFYYHSK	inactive
DSGTCGLG	inactive
WNWYYYIS	inactive
VYSHNFYN	7.3
YGQICYNY	7.8
FSGAQERW	5.1
NRHLTKLY	inactive
LFIKGETG	2.66
NLDLLCVV	inactive
ILLGLKYI	-0.513
MLLNLQRI	inactive
VFPNSGNL	7.91
YDLFVTLF	inactive
YGYLSATR	1.18
ELSFCLFV	inactive
VLFATHAR	inactive
LYMMIHYY	inactive
VLRMFVHC	inactive
GSKYRHTI	inactive

Variant	amyloid nucleation score
PWSSGLAG	2.71
VLLMCIWA	inactive
MFTVSSVL	inactive
CHMVCFVW	2.81
LNEDAKQR	1.59
DKQSYYPS	inactive
WKIMVRVF	inactive
GGSSVKDL	inactive
HKLSVYFS	inactive
EVLCPTIM	inactive
VIIIMRTW	inactive
DGTLLLVF	inactive
IFLWDYMI	inactive
VHNFQRSV	inactive
PMYSCKVC	4.67
LSGMRLLV	inactive
RVHYMAFY	inactive
GWKGWHSA	3.95
GNGILSEF	inactive
HDGTVRRT	0.18
YLYYLLVV	inactive
AEMMSRCL	inactive
LFKFDNVD	4.93
PSYVNRVR	inactive
CYYCQLNY	6.28

Variant	amyloid nucleation score
VMFLLNAR	inactive
WALFNYPV	inactive
RFVGHVRV	inactive
EKPTRAVL	inactive
IDNLLVLV	inactive
LFCFVNVD	8.23
FFCSSCWF	7.86
ISLFTRGY	3.57
VGFSEGRR	inactive
CMRGLVVV	3.8
VLDCTIQY	5.37
NVSFVYIC	5.68
IQPGGSFV	3.72
YFLFFLRR	inactive
QTMGALTP	0.72
LRLWGKLC	-0.0677
YCRCFYAL	6.16
TTSFWICM	6.78
IDVALPFD	inactive
VHLLDQNS	6.75
VNVRVNYV	0.574
FVAILWCQ	inactive
RKLSLILY	inactive
VLNNVVDC	2.8
NGRKRHSK	1.05

Variant	amyloid nucleation score
LEFVSMKL	-0.215
ILTYAYST	-0.104
VAWTYQWL	2.91
GGYCGVCQ	inactive
HLILTLYY	-0.166
LMFDEWSN	inactive
NALCRSMN	inactive
NDSHRFCS	inactive
CILNMSCV	7.49
CWNSISHV	8.39
PFVTTVIY	inactive
NDFHGGWG	5.8
HRFDCVKG	inactive
WDNSRQAC	0
VIPREDLF	6.92
KFDNYDMW	6.15
CSRYVKGR	inactive
TSKKVCMC	inactive
GPVPSAYV	inactive
HCGLYAFC	6.11
VLSGLLCC	5.9
YFSRKLLS	-0.779
LMVKSGLF	inactive

Reference: the supplement of paper PMC12067230
